Measured values published in paper PMC10234307.
Results are given in words; binding and its absence hold for the method and conditions named. In cells and extracts the contact can be indirect. Some entries that bind do so weakly or less than the wild type.

By UniProt entry, the sequences of proteins in these tests, tags left out.
UniProt P97500: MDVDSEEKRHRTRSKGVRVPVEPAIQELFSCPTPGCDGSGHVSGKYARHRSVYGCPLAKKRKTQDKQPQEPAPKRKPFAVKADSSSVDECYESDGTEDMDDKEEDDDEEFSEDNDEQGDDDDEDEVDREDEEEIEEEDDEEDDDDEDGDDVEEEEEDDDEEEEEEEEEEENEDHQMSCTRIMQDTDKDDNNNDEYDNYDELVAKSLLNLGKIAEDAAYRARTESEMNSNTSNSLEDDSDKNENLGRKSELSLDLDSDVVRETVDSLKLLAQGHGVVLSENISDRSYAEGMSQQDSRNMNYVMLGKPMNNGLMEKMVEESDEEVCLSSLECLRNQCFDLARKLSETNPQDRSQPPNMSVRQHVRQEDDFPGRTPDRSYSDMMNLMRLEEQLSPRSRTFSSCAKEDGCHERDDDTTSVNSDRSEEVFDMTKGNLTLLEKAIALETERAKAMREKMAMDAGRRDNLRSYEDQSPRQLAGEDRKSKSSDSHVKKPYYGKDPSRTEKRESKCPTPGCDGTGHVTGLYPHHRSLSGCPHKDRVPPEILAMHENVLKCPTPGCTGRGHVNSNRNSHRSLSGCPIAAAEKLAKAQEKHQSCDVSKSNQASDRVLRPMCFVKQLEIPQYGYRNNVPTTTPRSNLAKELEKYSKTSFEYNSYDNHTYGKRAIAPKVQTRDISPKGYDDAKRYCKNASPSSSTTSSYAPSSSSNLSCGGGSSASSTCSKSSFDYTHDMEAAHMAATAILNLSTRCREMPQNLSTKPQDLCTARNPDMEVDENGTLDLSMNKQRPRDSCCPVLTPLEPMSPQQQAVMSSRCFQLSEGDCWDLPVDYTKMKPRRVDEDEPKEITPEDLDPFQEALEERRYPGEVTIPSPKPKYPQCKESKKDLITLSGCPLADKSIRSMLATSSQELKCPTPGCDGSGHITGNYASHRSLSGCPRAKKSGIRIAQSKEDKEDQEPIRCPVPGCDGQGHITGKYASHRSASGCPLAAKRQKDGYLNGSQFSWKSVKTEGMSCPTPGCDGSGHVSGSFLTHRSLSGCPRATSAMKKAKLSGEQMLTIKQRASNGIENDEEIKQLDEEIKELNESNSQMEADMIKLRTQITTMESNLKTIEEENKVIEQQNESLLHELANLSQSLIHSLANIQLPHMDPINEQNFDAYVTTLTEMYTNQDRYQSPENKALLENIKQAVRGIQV
UniProt O09106: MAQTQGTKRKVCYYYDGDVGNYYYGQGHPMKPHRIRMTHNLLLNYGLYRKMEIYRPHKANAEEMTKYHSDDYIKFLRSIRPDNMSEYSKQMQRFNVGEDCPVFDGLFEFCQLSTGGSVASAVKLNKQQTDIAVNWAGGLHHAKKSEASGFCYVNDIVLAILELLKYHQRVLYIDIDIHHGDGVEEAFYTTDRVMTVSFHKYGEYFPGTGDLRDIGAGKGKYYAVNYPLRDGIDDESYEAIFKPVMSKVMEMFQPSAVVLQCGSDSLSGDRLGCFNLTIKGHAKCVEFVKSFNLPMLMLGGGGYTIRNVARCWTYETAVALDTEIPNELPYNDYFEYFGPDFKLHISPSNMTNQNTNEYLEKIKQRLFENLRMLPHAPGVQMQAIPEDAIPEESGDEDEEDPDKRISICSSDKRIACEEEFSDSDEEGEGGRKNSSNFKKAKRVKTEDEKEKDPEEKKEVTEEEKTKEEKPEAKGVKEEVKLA
UniProt P70288: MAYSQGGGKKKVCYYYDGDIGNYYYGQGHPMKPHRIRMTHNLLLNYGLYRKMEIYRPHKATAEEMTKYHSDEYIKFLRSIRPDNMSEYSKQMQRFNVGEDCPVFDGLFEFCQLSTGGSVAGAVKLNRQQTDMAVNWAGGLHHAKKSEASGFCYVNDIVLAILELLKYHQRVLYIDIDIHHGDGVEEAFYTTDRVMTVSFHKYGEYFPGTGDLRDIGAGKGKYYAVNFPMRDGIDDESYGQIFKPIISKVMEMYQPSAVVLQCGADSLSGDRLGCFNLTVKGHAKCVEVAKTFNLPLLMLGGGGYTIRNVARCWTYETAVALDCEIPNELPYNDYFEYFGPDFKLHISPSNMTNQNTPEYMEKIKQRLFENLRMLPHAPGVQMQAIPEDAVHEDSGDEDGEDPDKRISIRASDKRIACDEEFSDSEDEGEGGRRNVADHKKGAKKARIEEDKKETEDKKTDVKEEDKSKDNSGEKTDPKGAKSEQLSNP
UniProt Q6NZM9: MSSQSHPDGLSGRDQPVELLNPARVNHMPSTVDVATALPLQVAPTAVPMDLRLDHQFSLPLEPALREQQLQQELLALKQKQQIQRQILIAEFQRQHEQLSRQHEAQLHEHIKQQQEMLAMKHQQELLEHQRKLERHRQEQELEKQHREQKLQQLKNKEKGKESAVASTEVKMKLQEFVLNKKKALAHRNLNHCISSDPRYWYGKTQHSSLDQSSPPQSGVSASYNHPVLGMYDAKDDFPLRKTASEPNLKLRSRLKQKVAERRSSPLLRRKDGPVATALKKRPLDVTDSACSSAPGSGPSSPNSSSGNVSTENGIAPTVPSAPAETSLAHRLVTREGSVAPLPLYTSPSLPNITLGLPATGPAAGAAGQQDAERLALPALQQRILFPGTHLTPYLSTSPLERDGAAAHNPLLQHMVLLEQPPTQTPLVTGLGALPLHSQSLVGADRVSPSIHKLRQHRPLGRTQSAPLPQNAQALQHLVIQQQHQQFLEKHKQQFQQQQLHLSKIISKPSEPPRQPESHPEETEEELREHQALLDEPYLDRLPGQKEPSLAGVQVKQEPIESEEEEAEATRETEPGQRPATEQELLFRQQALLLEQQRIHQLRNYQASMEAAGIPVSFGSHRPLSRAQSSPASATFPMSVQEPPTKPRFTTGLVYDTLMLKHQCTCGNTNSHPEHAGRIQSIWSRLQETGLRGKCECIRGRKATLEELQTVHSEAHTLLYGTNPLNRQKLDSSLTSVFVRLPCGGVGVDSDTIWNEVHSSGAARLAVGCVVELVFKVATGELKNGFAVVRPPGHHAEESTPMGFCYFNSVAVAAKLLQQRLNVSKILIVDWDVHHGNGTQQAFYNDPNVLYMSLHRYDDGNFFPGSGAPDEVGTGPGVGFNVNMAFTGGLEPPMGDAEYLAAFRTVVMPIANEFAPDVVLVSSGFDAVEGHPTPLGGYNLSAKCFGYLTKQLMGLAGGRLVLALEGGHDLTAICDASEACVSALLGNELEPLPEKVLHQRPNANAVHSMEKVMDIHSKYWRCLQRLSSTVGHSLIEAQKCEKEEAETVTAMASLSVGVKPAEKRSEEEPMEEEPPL
UniProt Q60929: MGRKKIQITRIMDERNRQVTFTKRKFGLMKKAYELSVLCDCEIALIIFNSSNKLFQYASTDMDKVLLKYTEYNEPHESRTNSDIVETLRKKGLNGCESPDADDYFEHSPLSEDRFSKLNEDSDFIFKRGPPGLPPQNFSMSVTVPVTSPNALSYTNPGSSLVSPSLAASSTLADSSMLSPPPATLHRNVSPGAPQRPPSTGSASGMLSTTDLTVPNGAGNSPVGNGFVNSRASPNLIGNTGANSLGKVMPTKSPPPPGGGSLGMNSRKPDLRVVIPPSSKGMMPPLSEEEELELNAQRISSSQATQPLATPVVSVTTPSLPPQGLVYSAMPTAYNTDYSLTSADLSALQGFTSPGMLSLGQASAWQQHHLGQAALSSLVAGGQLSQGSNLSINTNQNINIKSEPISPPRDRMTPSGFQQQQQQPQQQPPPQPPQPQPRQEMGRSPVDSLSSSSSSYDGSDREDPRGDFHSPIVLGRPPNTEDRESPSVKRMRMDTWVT

B1: SIN3B (protein, UniProt Q62141 1-1098)
chain: MAHAGSGGSAGRGFGGSRWGRSGSGGHEKLPVHVEDALTYLDQVKIRFGSDPATYNGFLEIMKEFKSQSIDTPGVIRRVSQLFHEHPDLIVGFNAFLPLGYRIDIPKNGKLNIQSPLSSQDNSHSHGDCGEDFKQMSYKEDRGQVPLESDSVEFNNAISYVNKIKTRFLDHPEIYRSFLEILHTYQKEQLHTKGRPFRGMSEEEVFTEVANLFRGQEDLLSEFGQFLPEAKRSLFTGNGSCEMNSGQKNEEKSLEHNKKRSRPSLLRPVSAPAKKKMKLRGTKDLSIAAVGKYGTLQEFSFFDKVRRVLKSQEVYENFLRCIALFNQELVSGSELLQLVSPFLGKFPELFAQFKSFLGVKELSFAPPMSDRSGDGISREIDYASCKRIGSSYRALPKTYQQPKCSGRTAICKEVLNDTWVSFPSWSEDSTFVSSKKTPYEEQLHRCEDERFELDVVLETNLATIRVLESVQKKLSRMAPEDQEKLRLDDCLGGTSEVIQRRAIHRIYGDKAPEVIESLKRNPATAVPVVLKRLKAKEEEWREAQQGFNKIWREQYEKAYLKSLDHQAVNFKQNDTKALRSKSLLNEIESVYDEHQEQHSEGRSAPSSEPHLIFVYEDRQILEDAAALISYYVKRQPAIQKEDQGTIRQLLHRFLPSLFFSQQCPGTSDDSADERDRDRDSAEPERRRPTDEKPPADASPEPPKVLDDVYSLFFANNNWYFFLRLHQTLCARLLKIYRQAQKQLLEHRREQEREQLLCEGRREKAADPAMELRLKQPSEVELEEYYPAFLDMVRSLLEGSIDPTQYEDTLREMFTIHAYIGFTMDKLVQNIARQLHHLVSDDVCLKVVELYLNEQQRGAAGGNLSSRCVRAARETSYQWKAERCMADENCFKVMFLQRRGQVIMTIELLDTEEAQTEDPVEVQHLARYVEQYVGSEGASSSSTEGFLLKPVFLQRNLKKFRRWQCEQVRAMRGEAKSSWKRLMGVESACDVDCRFRLGTHKMVFIVNSEDYMYRRGTLCRAKQVQPLVLLRHHRHFEEWHGRWLEDNVTVAAAGLVQDWLMGEEEEDMVPCKTLCETAHVHGLPVTRYRVQYSRRPASP

Target: myelin transcription factor 1-like (MYT1L) (mouse (endogenous in P1 cortex)) (UniProt P97500)
Assay: co-IP; rabbit anti-MYT1L (Proteintech 25234-1-AP) on Protein A or G Dynabeads, incubated with precleared WT C57BL/6J P1 mouse cortex lysate (150 mM NaCl, 50 mM Tris, 1% Triton X-100, protease inhibitors) at 4°C overnight; four washes with lysis buffer; immunoblot for candidate cofactors; rabbit IgG as control

Row | Molecule | binding
1 | HDAC1 (from UniProt O09106 1-482) (enzyme) | no binding
2 | HDAC2 (from UniProt P70288 1-488) (enzyme) | binds
3 | HDAC4 (from UniProt Q6NZM9 1-1076) (enzyme) | no binding
4 | MEF2A (from UniProt Q60929 1-498) | no binding
5 | B1 | binds
